These results are taken from the supplement of paper PMC11417369.

± gives the standard deviation of the averaged measurements. Some of the results follow.

The test system of this test is PfAP2-G AP2 domain (GST-tagged). Description: gcPBM binding intensity (ln(normalized median fluorescence intensity)); higher = stronger DNA binding. The gist of the method:
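Binding intensity values are the highest Masliner-normalised natural-log median intensity among replicate spots of either probe orientation. The binding step lasted 1 h in 1× PBS with 1% milk, 0.2 mg/ml BSA, 0.5% salmon testes DNA and 0.03% Triton X-100, using GST-tagged P. falciparum DNA-binding domains expressed in E. coli on an Agilent 4 × 180k array of primer-extended double-stranded 36-bp intergenic genomic probes plus negative controls. Alexa488 anti-GST antibody and a 488 nm scan detected bound protein.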
With “AACATACATAAACACACACACACACCCACACCCACA [CACACA_site8058]”, the “gcPBM binding intensity (ln)” value was 10.4 ± 0.45.
The same measure for “TTTATGAAACAGTGCACACATAAAAATATATACATA [CACACA_site2992]”: 10.5 ± 0.38; for “TACACCCACCAACACACACACACACCCAAAAAAAAA [CACACA_site498]”: 10.5 ± 0.45.
As for “AAATACCTGATATATACACACTATGTTTTTCTTTTT [CACACA_site6680]”, the “gcPBM binding intensity (ln)” value is 9.83 ± 0.34.
The same measure for “TATTAAATTATATAGACACACATTATATATATATAT [CACACA_site4345]”: 10.1 ± 0.35.
The same measure for “CAATTAAATATATGAACACACATGTGAACTTTCTAT [CACACA_site3977]”: 10.18 ± 0.071; for “AATATAGATACATATACACACACACCCATACATATA [CACACA_site9137]”: 10.1 ± 0.13; for “AAAAAGAAATATTTATGTACATAATAATAATATTTT [XGTACX_site4693]”: 11.2 ± 0.59.
Regarding “AAGAAAAACATTACGTGTACCAAAAGGCCTGTCAAC [XGTACX_site267]”, the “gcPBM binding intensity (ln)” value stood at 11.2 ± 0.51.
As for “GTAACAAATAAAATAACACACATGTCGAAATGTATG [CACACA_site2971]”, the “gcPBM binding intensity (ln)” value turned out to be 9.945 ± 0.007.
The result for “AAAATGGGTTAGCACATACACACCAATATATTATAT [CACACA_site3082]” reads 10.04 ± 0.021.
The same measure for “TTCCATCAAAAAATGGGTACACATTATAGAAATATT [XGTACX_site8482]”: 11.6 ± 0.92; for “GCATTTTAATAATTATGTACATATATTATTCCTGGT [XGTACX_site3664]”: 11.3 ± 0.61; for “ATATTTAAACGATGGTGTACATATATTACAAGTTGT [XGTACX_site1743]”: 11.4 ± 0.73.
The same measure for “ATATAGATCTACACTGCACACATTTTTAACACTGCT [CACACA_site1882]”: 10.06 ± 0.092; for “AAAACATACAGATATACACACATATATATATATATA [CACACA_site5091]”: 9.85 ± 0.085.
Take “AAATTATTATCGTTAATATGTATATATGTGCCAAGT [TGCATGCA_negctrl_site557]”: the “gcPBM binding intensity (ln)” value amounted to 10.1 ± 0.18.
The same measure for “TATACATATATATATACACACATATATATATATACA [CACACA_site402]”: 9.8 ± 0.042; for “ACGCATGTAATTTATACACACATTCTTTTATATTTT [CACACA_site3708]”: 9.87 ± 0.22.
Take “AATCTAATGTAATGCATACACACAACTATCCATCAA [CACACA_site535]”: the “gcPBM binding intensity (ln)” value worked out at 10.01 ± 0.035.
With “CATATATGATATATTAGTACATATATATATATATAT [XGTACX_site1574]”, the “gcPBM binding intensity (ln)” value turned out to be 11 ± 0.62.
For “CGATATAAAGATATTAGTACATATGCATGCTTGTCT [XGTACX_site8629]”, the “gcPBM binding intensity (ln)” value is 10.7 ± 0.38.
The same measure for “AATATACGAAATTGTGCACACATATATTTATGTATG [CACACA_site1510]”: 10.5 ± 0.3.
The same measure for “TAAAATGAAGGAATATGTACATAAATAAACATATAT [XGTACX_site6266]”: 11.2 ± 0.63; for “TTGAAATTAAATGACATACACACTATATTATATATT [CACACA_site3135]”: 9.72 ± 0.11.
